# From PubChem BioAssay AID504832 (National Center for Advancing Translational Sciences (NCATS), 2011)
# The campaign covered roughly 310,000 compounds. About 18,000 (5.8%) were called active. Inconclusive means that the source gave no clear call. Such entries were picked first, then a sample of the others. Calls follow the shape of the dose curve; as a rule, active = well fitted inhibition curve with a large enough effect; inconclusive = small, poorly fitted or top-dose-only effect, or another doubt; inactive = no such curve, though single readings can be large or run the other way. Potencies of inconclusive entries are left out as doubtful fits.
# Assay: Primary qHTS for delayed death inhibitors of the malarial parasite plastid, 48 hour incubation
# Details: P. falciparum luciferase growth in erythrocytes; series mostly up to 28.7 µM
# Method in brief: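 Luciferase-expressing parasites in RBCs, 2% Hct / 0.1% parasitemia final; RPMI 1640 + 0.5% Albumax; 37 C, 5% CO2, one generation; luminescence read-out, lower signal = inhibition.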
# Potency is read from the fitted curve at half-maximal effect; tags tell the direction and shape of the fitted curve.
row,SMILES,Potency
1,CCC(O)c1c(-c2ccccc2)nn(C)c1Cl (stereo unspecified),"inconclusive [inhibitor, partial curve]"
2,COc1ccc(C(CNC(=O)C(CCSC)NC(=O)c2ccccc2OC)N2CCCCC2)cc1 (stereo unspecified),"inconclusive [inhibitor, partial curve]"
3,Cc1cc(C(F)(F)F)nn1Cc1n[nH]c(=S)n1Cc1ccccc1,"inconclusive [inhibitor, single point]"
4,Cc1csc(SCC(=O)NCc2cccs2)n1,inactive
5,Cc1ccc(/C=N/NC(=O)Cn2nnc(N)n2)cc1,inactive
6,Cc1ccc(S(=O)(=O)NN2C(=O)/C(=C\c3ccc(Cl)cc3)SC2=S)cc1,inactive
7,CCCCCSc1nnc(N)s1,"inconclusive [inhibitor, single point]"
8,O=C(NC1CCN(C(=O)NCc2ccccc2)CC1)c1ccccc1,inactive
9,CCC1=C2CC[C@H]3C(=O)N(CC)C(=O)[C@H]3[C@H]2[C@@]2(Cc3ccccc3)C(=NCc3ccccc3)OC(=O)N2C1=O,"inconclusive [inhibitor, single point]"
10,COc1cc(CC(=O)Nc2ccccc2N2CCCCC2)cc(OC)c1OC,"inconclusive [inhibitor, partial curve, poor fit]"
11,CC(C)(C)NC(=O)NC(=O)CN1CCN(c2cccc(Cl)c2)CC1,"inconclusive [inhibitor, partial curve]"
12,CCOC(=O)[C@@H]1[C@H]2COc3cc(OC)ccc3[C@@H]2N2C(=O)N(c3ccc(Cl)cc3)C(=O)[C@@]12C,"inconclusive [inhibitor, partial curve]"
13,COc1ccc(C)cc1NC(=O)C1CCN(C(=O)c2ccc(C(C)(C)C)cc2)CC1,"inconclusive [inhibitor, partial curve, poor fit]"
14,Cn1c(=O)c2c(nc(SCC(=O)Nc3ccccc3N3CCCCC3)n2C)n(C)c1=O,"inconclusive [inhibitor, single point]"
15,CCC(=O)Nc1nc(-c2ccc3c(c2)OCCO3)cs1,inactive
16,Cc1nc(-c2ccc(S(=O)(=O)N3CCN(C4c5ccccc5-c5ccccc54)CC3)s2)cs1,"inconclusive [inhibitor, partial curve, poor fit]"
17,CCCCCn1c(N2CCOCC2)nc2c1c(=O)n(CC(N)=O)c(=O)n2C,"inconclusive [inhibitor, partial curve, poor fit]"
18,CCN1CCN(C(=O)C(C)Nc2ccc(OC)cc2OC)CC1 (stereo unspecified),"inconclusive [inhibitor, single point]"
19,O=C(Cc1ccc(F)cc1)N1CCC2(CC1)NCCc1[nH]cnc12,inactive
20,Cc1nc(C)n(CC(C)C(=O)N2CCN(S(=O)(=O)c3ccccc3)CC2)n1 (stereo unspecified),"inconclusive [inhibitor, single point]"
21,O=C(Nc1ccon1)c1cccc(S(=O)(=O)N2CCCC2)c1,inactive
22,CC(NC(=O)CCCCCN1C(=O)c2ccccc2C1=O)c1ccc2c(c1)CCCC2 (stereo unspecified),"inconclusive [inhibitor, single point]"
23,COc1ccc2cc3cc(C(=O)NCCC(C)C)oc3nc2c1,"inconclusive [inhibitor, full curve]"

row,SMILES,Potency
1,CC1CC(C)CN(C(=O)CCC(=O)Nc2nnc(C3CCCCC3)s2)C1 (stereo unspecified),"inconclusive [inhibitor, partial curve, poor fit]"
2,CC(NC(=O)c1ccc(CS(=O)(=O)Cc2ccccc2F)o1)c1ccc2c(c1)OCCO2 (stereo unspecified),"inconclusive [inhibitor, single point]"
3,CCc1ccc2c(c1)C1(SC(NC(C)=O)=NN1C(C)=O)C(=O)N2CC (stereo unspecified),inactive
4,CC(=O)COc1ccc2c(C)c(C)c(=O)oc2c1,inactive
5,COc1ccc(C(c2nnnn2Cc2cccs2)N2CCN(c3ccccc3)CC2)cc1OC (stereo unspecified),active: 14.7 µM
6,O=C(CN1CCN(c2ccccc2O)CC1)Nc1ccccc1C(=O)NCCc1ccccc1,inactive
7,Fc1ccc(NC(=S)Nc2cccnc2)cc1Cl,active: 14.7 µM
8,COc1ccc(CCN2C(=NC(=O)CCC(=O)O)SC3CS(=O)(=O)CC32)cc1OC (stereo unspecified),"inconclusive [inhibitor, full curve, poor fit]"
9,Cc1ccc(S(=O)(=O)c2c(N)n(/N=C/c3ccco3)c3nc4ccccc4nc23)cc1,active: 6.57 µM
10,CCOC1CC(C)(C)NC(=S)N1 (stereo unspecified),inactive
11,Cc1cccc(COC(=O)CCCNC(=O)c2ccc(Cl)cc2)c1,"inconclusive [inhibitor, single point]"
12,CC1CCCC(NS(=O)(=O)c2cc(Br)cnc2N)C1C (stereo unspecified),"inconclusive [inhibitor, single point]"
13,COc1ccc(C(=O)COC(=O)c2cc(S(=O)(=O)N3CCCCC3)ccc2N2CCOCC2)c(OC)c1,active: 9.28 µM
14,O=C(COC(=O)c1ccc([N+](=O)[O-])s1)Nc1cccc(S(=O)(=O)NC2=NCCCCC2)c1,inactive
15,Cc1ccccc1CSCCNC(=O)c1ccc(N(C)S(=O)(=O)c2ccccc2)cc1,inactive
16,CCOc1ccccc1Oc1cn[nH]c1-c1ccc(O)cc1O,active: 8.28 µM
17,NC1=NC(=Nc2ccc(S(N)(=O)=O)cc2)c2ccccc21,inactive
18,Oc1ccccc1CN1CCCC(N2CCN(c3cccc(C(F)(F)F)c3)CC2)C1 (stereo unspecified),active: 1.47 µM
19,COCc1ccc(C(=O)NC2CCSc3ccccc32)cc1 (stereo unspecified),inactive
20,CCOC(=O)C1CCN(C(=O)c2oc3ccc4c(c3c2C)C(O)CC2(CCCCC2)O4)CC1 (stereo unspecified),"inconclusive [inhibitor, partial curve, poor fit]"
21,COc1cc(NC(=O)CCS(=O)(=O)c2nc(-c3cccs3)cc(C(F)(F)F)n2)cc(OC)c1OC,"inconclusive [inhibitor, single point]"
22,COc1cc(/C=C2/SC(=S)N(Cc3ccccc3)C2=O)ccc1OCC(=O)O,inactive
23,CC(=O)c1ccc(OCCCC(=O)N2CCN(S(=O)(=O)c3ccc(C)cc3C)CC2)cc1,"inconclusive [inhibitor, partial curve, poor fit]"
